Test results as given in US12285428B2 (IMBRIA PHARMACEUTICALS, INC., priority 2021, dated 2025).

Experiments:
healthy subjects [1] = assay: FIH study, single-dose MR part: safety and tolerability; assay type: in vivo, human
Text: In the single-dose MR part, 1 group of 12 healthy subjects (all on active drug) was included. […] The MR formulation of IMB-1018972 to be administered on Day 13 under fed conditions was 1 of the 4 MR formulations administered on Days 1, 4, 7, and 10 under fasted conditions.

healthy subjects [2] = assay: FIH study, multiple-dose MR part: safety and tolerability; assay type: in vivo, human; details: 5-day 200 mg 8-hour MR formulation of IMB-1018972 q12h, fed
Text: In the multiple-dose MR part, 1 group of 12 healthy subjects (all on active drug) was included.

[3] = 50 mg 8-hour MR formulation of IMB-1018972, fasted
[4] = 200 mg 8-hour MR formulation of IMB-1018972, fasted
[5] = 200 mg 8-hour MR formulation of IMB-1018972, fed

COc1ccc(CN2CCN(CCOC(=O)c3cccnc3)CC2)c(OC)c1OC [IMB-1018972, 2-[4-[(2,3,4-trimethoxyphenyl)methyl]piperazin-1-yl]ethyl pyridine-3-carboxylate]
Number of TEAEs (healthy subjects [1]; [3]): 6 | Subjects reporting TEAEs (healthy subjects [1]; [3]): 33.3% | Number of TEAEs (healthy subjects [1]; [4]): 6 | Subjects reporting TEAEs (healthy subjects [1]; [4]): 41.7% | Number of TEAEs (healthy subjects [1]; [5]): 5 | Subjects reporting TEAEs (healthy subjects [1]; [5]): 18.2% | Drug-related TEAEs (healthy subjects [1]; following the 200 mg 8-hour MR formulation of IMB-1018972, fed): No drug-related TEAEs | Tolerability (healthy subjects [2]): well tolerated
